# Results from PubChem BioAssay AID651711 (Broad Institute, 2012).
# Among all 350,000 compounds or so, about 180 (0.051%) were called active. The inconclusive results got no clear call from the source; some entries with a clear call stand among them for comparison.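 Rule for the calls: active = mean replicate inhibition above about 25%, with every replicate also reaching it (limit read from the data, passing the limit was not always enough); inconclusive = only one of those two criteria met; inactive = neither criterion met.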
# Target: Protein disulfide-isomerase A6 (Homo sapiens) (UniProt Q15084)
# UniProt Q15084, sequence (Q15084 whole entry, looked up): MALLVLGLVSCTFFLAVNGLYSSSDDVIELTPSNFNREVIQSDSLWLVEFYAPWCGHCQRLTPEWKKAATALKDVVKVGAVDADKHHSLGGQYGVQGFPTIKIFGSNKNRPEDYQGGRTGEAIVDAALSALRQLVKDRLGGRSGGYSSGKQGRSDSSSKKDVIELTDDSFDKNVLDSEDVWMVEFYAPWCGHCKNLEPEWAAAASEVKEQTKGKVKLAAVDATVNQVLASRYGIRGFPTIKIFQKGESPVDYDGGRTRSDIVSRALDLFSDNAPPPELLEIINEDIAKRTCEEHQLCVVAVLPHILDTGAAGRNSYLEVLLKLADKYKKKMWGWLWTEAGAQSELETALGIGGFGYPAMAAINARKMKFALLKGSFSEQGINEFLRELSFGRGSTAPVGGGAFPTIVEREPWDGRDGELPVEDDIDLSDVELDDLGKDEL
# Test: inhibitors of ERp5-driven insulin aggregation, primary screen, biochemical, turbidity, absorbance 650 nm, single point (AID 651711)
# Settings: 90 min, at 9.99 µM, active compounds read high
row,Compound,inhibition
1,Cc1ccc(S(=O)(=O)N2CCCCC2)cc1NC(=O)COC(=O)C1=COCCO1,inconclusive: 25.2%
2,CN(C)C/C=C(/c1ccc(Br)cc1)c1cccnc1,inconclusive: 40%
3,NS(=O)(=O)c1ccc(N/N=C2/CCCCC2C2CCCCC2)c([N+](=O)[O-])c1 (centres undefined),inconclusive: 40%
4,CCOC(=O)[C@H]1[C@H]2COc3ccc(Br)cc3[C@@H]2N2C(=O)N(c3ccc(F)cc3)C(=O)[C@@]12C,inactive: -2.08%
5,CS(=O)(=O)N1[C@H](CO)[C@H](c2ccccc2)C12CN(C(=O)c1ccccc1F)C2,inconclusive: 30.7%
6,CCOc1c2ccc(C(=O)NCCCCc3ccccc3)cc2nn1CC,inconclusive: 30.6%
7,CCCNC(=O)C[C@@H]1C[C@H]2c3cc(NC(=O)CC4CC4)ccc3O[C@H]2[C@H](CO)O1,active: 61.6%
8,O=C(NCc1cccc(F)c1)[C@@H]1[C@@H](CO)[C@@H]2Cn3c(cccc3=O)[C@H]1N2C(=O)c1cnccn1,inactive: 1.75%
9,Cn1cccc1C(=O)c1cccc([N+](=O)[O-])c1,inconclusive: 43.3%
10,CC(C)(O)CN(C(=O)C(c1ccccc1)c1ccccc1)C1CCCCC1,inactive: -1.62%
11,C[C@H]1CCCCO[C@@H](CN(C)S(C)(=O)=O)[C@@H](C)CN([C@@H](C)CO)C(=O)c2cc(N(C)C)ccc2O1,inactive: -6.49%
12,COc1ccc(C(=O)Nc2ccc(/C(C)=N/NC(=O)c3ccccc3O)cc2)cc1OC,inconclusive: 40.5%
13,C/C=C/c1ccc2c(c1)O[C@@H](CN(C)S(C)(=O)=O)[C@H](C)CN([C@H](C)CO)S2(=O)=O,active: 88.3%
14,O=C(O)C(Cc1ccccc1)n1c(=S)[nH]c2ccccc2c1=O (centres undefined),inconclusive: 44.6%
15,O=C1[C@H](Cc2ccccc2)NCC=CC[C@H](c2ccc(Cl)cc2)N1Cc1ccc(Cl)cc1,inactive: -2.87%
16,CCCNC(=O)C[C@@H]1C[C@H]2c3cc(NS(C)(=O)=O)ccc3O[C@H]2[C@@H](CO)O1,active: 55.9%
17,CN1CCN(C2Cc3ccccc3Sc3ccc(Cl)cc32)CC1 (centres undefined),inconclusive: 53.9%
18,OCCNc1nc(-c2ccccc2)c2cc(Br)ccc2n1,inactive: 6.46%
19,COc1ccc2c3c(n(C)c2c1)[C@H](CO)N(S(C)(=O)=O)CC31CCN(CC2CCCC2)CC1,active: 59.7%
20,Clc1ccccc1-c1nnc2n1-c1ccccc1SC2,inconclusive: 26.5%
21,CC(Sc1ccccn1)C(=O)Nc1ccc2c(c1)OCCO2 (centres undefined),inactive: -6.3%
22,COc1ccc(-c2ccc3c(c2)[C@H]2[C@H](CCN2C(=O)c2cccc(F)c2)[C@H](CO)N3)cc1,inactive: -8.81%
23,CCC(=O)Nc1ccc2c(c1)OC[C@H](C)N(CCc1ccccc1)C[C@H](C)[C@@H](OC)CN(C)C2=O,inactive: -4.39%
24,CC(C)Cc1nc2ccccc2[nH]1,inactive: 1.01%
25,CN(C)C(=O)CSC1c2ccccc2C(=O)N1c1ccccc1 (centres undefined),inactive: -1.51%
26,COc1ccc(NC2=C(C(C)=O)C(c3ccc(N(C)C)cc3)C(C(C)=O)C(C)(O)C2)cc1 (centres undefined),inconclusive: 27.6%
27,CC(C)(C)OC(=O)N1CCC(C(=O)Nc2cccc(C(=O)NCc3ccccc3)c2)CC1,inconclusive: 51.6%
28,NC(=O)c1ccsc1NC(=O)COC(=O)/C=C/c1ccc([N+](=O)[O-])cc1,inconclusive: 46.3%
29,CC(=O)N(C)C[C@H]1Oc2cc(C#Cc3cccc(F)c3)ccc2S(=O)(=O)N([C@@H](C)CO)C[C@H]1C,inactive: 6.92%
